Laboratory results published in the supplement of paper PMC11417369.
Some of the results follow.

tested on: PfSIP2 AP2 domain 1 (GST-tagged); assay: gcPBM binding intensity (ln(normalized median fluorescence intensity)); higher = stronger DNA binding
Procedure, shortened: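 The binding buffer was 1× PBS containing 1% milk, 0.2 mg/ml BSA, 0.5% salmon testes DNA and 0.03% Triton X-100. In it, GST-tagged P. falciparum DNA-binding domains expressed in E. coli were applied for 1 h to an Agilent 4 × 180k array of primer-extended double-stranded 36-bp intergenic genomic probes plus negative controls. Binding intensity, read with Alexa488 anti-GST antibody and a 488 nm scan, is the highest Masliner-normalised natural-log median intensity across replicate spots of either probe orientation.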

| Sequence | gcPBM binding intensity (ln) |
| --- | --- |
| AAAAAAATAAGTATTGAACAATTAAGGAAAAACATG [GTGCAC_negctrl_site464] | 7.27 |
| CTTATAAAAAAAAAAACATGCAACAGTAAAGAACAA [TGCATGCA_site892] | 7.13 |
| GGTAATTTTTTTTAAATACACACTGAAATGTGAATT [CACACA_site564] | 7.29 |
| CATACAGATATATATACACACATACAGATAAATACA [CACACA_site4592] | 7.21 |
| AAGATTAAAAATTGCACACAAAAATATATTTTCTAT [CACACA_site1305] | 7.41 |
| AAATTATATCATTTATTTTTTTATATTTTTTATATT [CACACA_negctrl_site685] | 6.75 |
| AATTTCCTTTTTTAAAGTACACAAAAGTTCACTTTG [XGTACX_site4460] | 6.83 |
| TATAATTTATTAAGGGGTACATATATTTCATGATAA [XGTACX_site5141] | 7.19 |
| AAAAAAAAAAATATCACACACACATAAATATAAACC [CACACA_site2278] | 7.32 |
| AAATTATATCAATGTTGTACATATTATTTTTTTCTC [XGTACX_site5948] | 6.86 |
| TAGTATAAAATTATGTGTACACAAATATAACTTTTC [XGTACX_site5971] | 7.2 |
| AAAAAAAAAAAAAGGTGTACAAGTATAATTACATAA [XGTACX_site534] | 7.36 |
| TATTTATTGTGATACTTTTATTGTTTAATGATTAAA [CACACA_negctrl_site495] | 6.88 |
| TTGTTAAAAGTATCCATTCTTTATTACTTTTGTTTA [XGTACX_negctrl_site532] | 6.95 |
| TGTACCTTATTAATATATTTAACTCGCCTTATATAC [XGTACX_negctrl_site289] | 7.21 |
| ATTGGGTACAAATACACACACATATATATATTAATA [CACACA_site2376] | 7.1 |
| TCGTAAACATATTGAAAAATATAAAAAGGGGTAATA [CACACA_negctrl_site619] | 6.91 |
| AATGGTATAATCAATACACACATAATATATATATTG [CACACA_site1658] | 6.9 |
| TTAAGATATGTATATCGTACATGACATTAAAAATTT [XGTACX_site3352] | 6.71 |
| TAAAAAAAATACAAAAGTACACAAAATTATACGTTA [XGTACX_site4656] | 7.07 |
| AAATAAATACACATATGTACATATTTTATTTTATTT [XGTACX_site2357] | 7.09 |
| CAAATATAAATATATACATGCATCTATCTATATAAA [TGCATGCA_site369] | 7 |

| Sequence | gcPBM binding intensity (ln) |
| --- | --- |
| AATCAAAAATCAAACGCATGTAGTATAATAGATAAG [TGCATGCA_site753] | 6.92 |
| AAATTGTAGCACCAAGCATGCTAAAAGGACATATGA [TGCATGCA_site717] | 7.5 |
| TTATTTTCCCTTTGTGCATGCAGTTTACTTTTTGTG [TGCATGCA_site993] | 7.95 |
| ACTTGTAAGAGACACACACACACACGGATATAAATA [CACACA_site6517] | 6.99 |
| ACACATATATTAAATGTGCACTGAAATATGCATATA [GTGCAC_site9936] | 9.89 |
| CAAAATAAAAATAACACACACATTTATTTATATACA [CACACA_site6679] | 6.92 |
| ATATATGTATATTTATGTACGTATTCCTGTATAGTC [XGTACX_site5763] | 7.22 |
| GGAAAAAAAAATAAATGTACGAATTAACATATCAAA [XGTACX_site5653] | 6.75 |
| ACACAAGCACACAAATGTACATATATATATATATAT [XGTACX_site5146] | 9.61 |
| GTAACATTTTAAATATATACATATAATGTATTTATA [GTGCAC_negctrl_site344] | 7.03 |
| ATTAAACCGTGGGAGCACACACACACACACACACAT [TGCATGCA_negctrl_site72] | 7.18 |
| TGTTGTATCAATTTTTGTACATAACACATATGTATA [XGTACX_site3666] | 6.93 |
| ATTAATTAAAAGGGAACACATAGAAATTATAAAACA [GTGCAC_negctrl_site420] | 7.07 |
| ATATATATATTATGGGGTACAAACATCAAAAGATTT [XGTACX_site3944] | 8.33 |
| TGTGTAGGGGATATTCTACTTTAAAAATAAATATAT [CACACA_negctrl_site207] | 7.26 |
| TATAAAAGATTGGAATGTACATAAGAAAAAAATATA [XGTACX_site5028] | 7.49 |
| AATCATATTAGTATGGTGCAACATATATAAATATAT | 10.8 |
| GGCCCAACTTCTTCTGACGAAAACGTAAATTGTGTG [XGTACX_negctrl_site533] | 6.89 |
| TTCAAGATTTATTATACACACATATTAATATTTATA [CACACA_site6413] | 7.16 |
| ATTCTATTATAATACACACCCAAATATTAAAAAGAT [CACACA_site2960] | 7.67 |
| CCACATGATATGATTACACACATATATATATTTACA [CACACA_site164] | 7.19 |
| TATTATATATATATATGTACATATATATGCTAAAAA [XGTACX_site5297] | 7.3 |

| Sequence | gcPBM binding intensity (ln) |
| --- | --- |
| GATGTTGCAAAATTCTGTACATATAAATGTATACAT [XGTACX_site5009] | 7.25 |
| TAATGAATTTAAATTTTAAAATTAATAAAAAAAATA [TGCATGCA_negctrl_site15] | 6.87 |
| CAAAATGTTTCTCATTGTACACAAAATAAATGTCCT [XGTACX_site6798] | 6.9 |
| ATACATATGTATATTTGTACATATTAGACAATCTTA [XGTACX_site6706] | 6.86 |
| ATTAGTAAATTTATATGTACACATTGTTATTTTATA [XGTACX_site1177] | 7.13 |
| ACATTTACAAGGAAAGTGCATATAAGAAAAATAAAA [GTGCAC_site9587] | 8.95 |
| TTATTCATTTTTATTTGTACATAATTATATGAAATT [XGTACX_site6389] | 6.97 |
| TTTTATATTTTATGCACACTTATAAGAAATATGTAC [CACACA_site3040] | 8.27 |
| TATTTATTAAAACACACACACACACCCACAAAATAA [CACACA_site241] | 7.39 |
| ATAATATATATATAAACACACAAAAAAAATTATATA [CACACA_site1534] | 7.13 |
| TTATGTATTCATTTTTTTTAAGCACCCCAAAATGAT [CACACA_negctrl_site1344] | 9.66 |
| ATTTTTTTTTATGATACACACTTGGATAATTAAAAC [CACACA_site4473] | 7.26 |
| ATAGGTTCCCAAAATGCACACCAATGAAATTATTTA [CACACA_site8081] | 7.25 |
| CAAGCTTTTTCCTTTACACACATTAGTTATTTATAT [CACACA_site6781] | 6.91 |
| ATATTATTTTAAAGTACACACATATATTAAGATATA [CACACA_site5306] | 7.32 |
| ATGATTTCACAAGACACACACATACAAATTTATATA [CACACA_site3909] | 7.3 |
| TATTTTATATTTTATGCACACTTATAAGAAATATGT [CACACA_site5647] | 9.6 |
| TTAATATATTATCTGGTGCATAAACACGTTATACCT | 9.46 |
| CAGTATTACATGAGGACACACACAAAAAAAATATAT [CACACA_site8156] | 7.08 |
| TATTAATATGGTAATACACACTAATATACTTTTGTT [CACACA_site6860] | 6.89 |
| ATATATATATATATATGTACGTATTCATAAACAACA [XGTACX_site4282] | 9.08 |
| CTGTAAAAAATATAAACACACATAGAGATATATAAA [CACACA_site6292] | 6.93 |

| Sequence | gcPBM binding intensity (ln) |
| --- | --- |
| TTTAATGTTACTCCTTGTACACAAAATAGTGTTATA [XGTACX_site8416] | 7.04 |
| TAAGTATATTTTATATGTACTTATATATTTAATTTT [XGTACX_site4615] | 6.88 |
| AACAAATAAAAAAAAATAAAAATAAAAATAAAAAAA [XGTACX_negctrl_site451] | 6.79 |
| TTTAAAATTATAAGGATTAAAAAAAAAAAAAATAAA [CACACA_negctrl_site114] | 6.63 |
| AAGAATTATATTAATAGTACATATATATTAATTTAT [XGTACX_site5713] | 7.03 |
| TTATTTATGAAGTATACACACAATATAGATTTATAT [CACACA_site6703] | 6.96 |
| TTTTGTTATTATAAATAGTAACATTTGTGAATATAT [TGCATGCA_negctrl_site132] | 6.86 |
| AAGACATTTTTTTGTTGTACGTCTTCATTTATTGTA [XGTACX_site2890] | 6.98 |
| ATAATGAAAACAAGCACACATACATAAAATAAAATA [CACACA_site3257] | 7.04 |
| ATGGAAGGATAATAAAAACCTTTACCTTTCTGTTTA [GTGCAC_negctrl_site380] | 6.63 |
| ATAAATTTTTAAACAGCACACATAAATATAATATAT [CACACA_site8691] | 7.06 |
| AATATTACAATTTGGTGTACAGGTGCACATGCCTCA [XGTACX_site1730] | 11.5 |
| TCTACAATTTTAATTACACACTATAAAAAAGAAAGA [CACACA_site5624] | 6.98 |
| TAGCTTATAAGATATGCACACACAACACTTACAAAA [CACACA_site8174] | 7.45 |
| ATAATAACTGATAAATGTACATATAAATTTTATGAT [XGTACX_site195] | 7.06 |
| ATAATTTAAAAACATTGTACATTAATATATATGTAT [XGTACX_site8970] | 7 |
| AGGATATGCGGACACACACACATATATATATATATA [CACACA_site5247] | 9.5 |
| TTTATATTTCTTCATCGTACACATAAAAAAAAAAAA [XGTACX_site3244] | 7.31 |
| ATACTCACGAAACACACACACAATATATATATATAT [CACACA_site4136] | 9.24 |
| TTTTATATTTTAAGAGTGCATTTTATATCTTTTTCT | 8.74 |
| GAAAATATTAAATGAAGTACAATATTTATGTTACTT [XGTACX_site8737] | 6.71 |
| TGAAAGAATGTTAATAGTACACACAATTATTATATA [XGTACX_site7936] | 6.93 |
